In experiment [1] the target is CELF1 (CUGBP and eELAV-like family member 1) RNA-binding protein (human (endogenous in MCF-10A)) (UniProt Q92879). Briefly: co-IP; reverse: immunoprecipitation with anti-CELF1 antibody from cytoplasmic extracts of TGF-β-treated (5 ng/ml, 72 h) MCF-10A cells; immunoblot for the PKC isozymes.
In experiment [2] the target is protein kinase C epsilon (human (endogenous in MCF-10A)) (UniProt Q02156). Briefly: co-IP; immunoprecipitation with anti-PKC isozyme antibodies on Agarose A/G Plus beads from extracts of untreated (no TGF-β, epithelial) MCF-10A cells; 1 mg lysate, overnight at 4 °C; immunoblot for CELF1. In general terms: Immunoblotting shows a protein as a band on a membrane.
The target in experiment [3] is PKC delta (human (endogenous in MCF-10A)) (UniProt Q05655). The experiment is described as above.
Experiment [4] deals with protein kinase C alpha (human (endogenous in MCF-10A)) (UniProt P17252). The description is as above.
In experiment [5] the target is protein kinase C epsilon (human (endogenous in MCF-10A)) (UniProt Q02156). Briefly: co-IP; immunoprecipitation with anti-PKC isozyme antibodies on Agarose A/G Plus beads from cytoplasmic extracts of TGF-β-treated (5 ng/ml, 72 h) MCF-10A cells; 1 mg lysate, overnight at 4 °C; immunoblot for CELF1.
Experiment [6] deals with PKC delta (human (endogenous in MCF-10A)) (UniProt Q05655). The description is as above.
Experiment [7] has as its target protein kinase C alpha (human (endogenous in MCF-10A)) (UniProt P17252). The experiment is described as above.

By UniProt entry, the sequences of proteins in these tests, tags left out.
UniProt Q92879: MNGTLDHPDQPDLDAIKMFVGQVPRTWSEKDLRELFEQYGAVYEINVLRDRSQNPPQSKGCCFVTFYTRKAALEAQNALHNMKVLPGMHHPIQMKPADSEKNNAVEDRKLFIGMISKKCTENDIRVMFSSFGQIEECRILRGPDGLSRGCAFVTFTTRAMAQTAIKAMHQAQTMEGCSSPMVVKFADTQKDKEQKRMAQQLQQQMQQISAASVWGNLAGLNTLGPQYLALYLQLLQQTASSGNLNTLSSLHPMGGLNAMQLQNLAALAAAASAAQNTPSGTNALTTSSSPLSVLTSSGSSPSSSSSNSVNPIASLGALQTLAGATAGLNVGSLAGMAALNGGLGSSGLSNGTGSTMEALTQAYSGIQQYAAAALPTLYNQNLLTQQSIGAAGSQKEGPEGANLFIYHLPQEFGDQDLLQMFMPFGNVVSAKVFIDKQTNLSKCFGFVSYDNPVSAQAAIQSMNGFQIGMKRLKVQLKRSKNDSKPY
UniProt Q02156: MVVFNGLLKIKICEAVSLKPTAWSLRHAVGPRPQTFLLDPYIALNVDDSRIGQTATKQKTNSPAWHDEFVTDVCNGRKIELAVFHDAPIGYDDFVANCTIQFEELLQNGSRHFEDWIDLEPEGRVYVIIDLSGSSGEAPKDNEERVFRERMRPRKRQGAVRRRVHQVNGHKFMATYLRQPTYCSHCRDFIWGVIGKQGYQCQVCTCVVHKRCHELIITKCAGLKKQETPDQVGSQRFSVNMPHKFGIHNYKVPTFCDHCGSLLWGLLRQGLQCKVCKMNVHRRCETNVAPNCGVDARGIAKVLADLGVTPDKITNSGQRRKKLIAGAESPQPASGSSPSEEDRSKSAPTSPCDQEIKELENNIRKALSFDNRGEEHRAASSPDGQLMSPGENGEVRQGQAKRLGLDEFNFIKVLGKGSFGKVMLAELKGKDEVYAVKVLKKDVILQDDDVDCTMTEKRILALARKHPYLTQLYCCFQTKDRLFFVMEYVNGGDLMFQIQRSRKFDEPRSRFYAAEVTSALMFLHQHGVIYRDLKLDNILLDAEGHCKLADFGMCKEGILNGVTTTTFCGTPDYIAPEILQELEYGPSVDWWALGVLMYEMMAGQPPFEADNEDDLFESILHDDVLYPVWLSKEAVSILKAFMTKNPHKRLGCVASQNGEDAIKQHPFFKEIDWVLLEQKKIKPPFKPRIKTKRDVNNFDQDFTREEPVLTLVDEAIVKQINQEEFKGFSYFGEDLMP
UniProt Q05655: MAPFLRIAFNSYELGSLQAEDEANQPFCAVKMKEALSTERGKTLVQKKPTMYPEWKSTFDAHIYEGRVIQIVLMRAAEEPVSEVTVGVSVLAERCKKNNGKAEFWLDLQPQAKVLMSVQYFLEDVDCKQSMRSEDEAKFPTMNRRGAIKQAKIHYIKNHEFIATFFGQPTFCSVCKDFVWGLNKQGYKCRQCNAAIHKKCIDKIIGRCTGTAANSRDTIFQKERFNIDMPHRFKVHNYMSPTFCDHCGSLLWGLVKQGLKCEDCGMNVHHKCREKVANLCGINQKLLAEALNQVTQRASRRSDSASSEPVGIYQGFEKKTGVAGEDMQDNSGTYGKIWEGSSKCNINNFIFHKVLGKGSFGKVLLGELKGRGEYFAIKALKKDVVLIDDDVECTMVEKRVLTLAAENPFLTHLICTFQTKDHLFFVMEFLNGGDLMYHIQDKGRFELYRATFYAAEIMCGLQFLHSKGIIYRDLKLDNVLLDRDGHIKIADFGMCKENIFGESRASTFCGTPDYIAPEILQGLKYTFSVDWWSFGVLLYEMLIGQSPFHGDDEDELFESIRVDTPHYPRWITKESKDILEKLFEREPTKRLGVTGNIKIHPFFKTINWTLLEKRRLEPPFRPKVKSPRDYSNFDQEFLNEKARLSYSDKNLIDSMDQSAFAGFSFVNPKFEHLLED

Results are given in words; binding and its absence hold for the method and conditions named. Binding seen in cells or lysates may run through a third protein. Some binding calls cover weakened binding; strength is not graded here.

Turning to “protein kinase C alpha (from UniProt P17252 1-672) (enzyme)”, in experiment [1], the binding result is “binds”.

As for “protein kinase C epsilon (from UniProt Q02156 1-737) (enzyme)”, the binding entry in experiment [1] was “binds”.

In the case of “CELF1 (CUGBP and eELAV-like family member 1) RNA-binding protein (from UniProt Q92879 1-486)”, the binding entry in experiment [2] was “no binding (condition: untreated MCF-10A cells (no TGF-β))”; in experiment [3], “no binding”; in experiment [4] it was “no binding (condition: untreated MCF-10A cells (no TGF-β))”; in experiment [5] it was “binds”; in experiment [6], “no binding”; in experiment [7], “binds”.

Values taken from article PMC11585768.
